Sequences and labels used below:
B1: AB200-R1a-Fab_VH20 (antibody)
heavy: QVQLVQSGAEVKKPGSSVKVSCKASGGTFSNYWMHWVRQAPGQGLEWMGATIRGHSQTYYNQKFQGRVTITADKSTSTAYMELSSLRSEDTAVYYCARGAIYHGYDVLDNWGQGTLVTVSSASTKGPSVFPLAPSSKSTSGGTAALGCLVKDYFPEPVTVSWNSGALTSGVHTFPAVLQSSGLYSLSSVVTVPSSSLGTQTYICNVNHKPSNTKVDKKVEPKSC
light: DIQMTQSPSSLSASVGDRVTITCSATQDISNYLNWYQQKPGKAPKLLIYFTSNLQSGVPSRFSGSGSGTDFTLTISSLQPEDFATYYCQQYRKLPWTFGQGTKLEIKRTVAAPSVFIFPPSDEQLKSGTASVVCLLNNFYPREAKVQWKVDNALQSGNSQESVTEQDSKDSTYSLSSTLTLSKADYEKHKVYACEVTHQGLSSPVTKSFNRGEC
B2: AB200-R1a-Fab_VH26: round 1 heavy chain variant of AB200_D99H_Fab paired with the AB200_Vk6_Fab (antibody)
heavy: B1 heavy with T28S, I52Y, G54I, Q57D, Y59F, Q65K
light: B1 light
B3: AB200-R1a-Fab_VH18 (antibody)
heavy: B1 heavy with I52Y, R53K, Q57D, Q65K, K74E, D106E
light: B1 light
B4: AB200-R1a-Fab_VH21 (antibody)
heavy: B1 heavy with W33A, I52Y, H55Q, Q57D, F64Y, Q65K
light: B1 light
B5: AB200-R1a-Fab_VH23 (antibody)
heavy: B1 heavy with W33Y, I52Y, Q57D, Y59F, N61A, Q65K
light: B1 light
B6: AB200-R1a-Fab_VH24 (antibody)
heavy: B1 heavy with S30T, I52Y, Q57N, Q65K, L108I
light: B1 light
B7: AB200-R1a-Fab_VH27 (antibody)
heavy: B1 heavy with S25T, T51I, I52Y, Q57D, Q65R
light: B1 light
B8: AB200-R1a-Fab_VH19 (antibody)
heavy: B1 heavy with T28S, H35Q, I52Y, Q57D, Q65K, A100S
light: B1 light
B9: AB200-R1a-Fab_VH30 (antibody)
heavy: B1 heavy with F29Y, I52Y, S56T, Q57D, Q65K, L108M
light: B1 light
B10: AB200-R1a-Fab(hCDR3) (antibody)
heavy: B1 heavy with I52Y, Q57D, Q65K
light: B1 light with T26S, F50Y, Q55H, Y91S, R92Y, K93S, L94T
B11: AB200-R1a-Fab_Vk4 (antibody)
heavy: B1 heavy with I52Y, Q57D, Q65K
light: B1 light with S24T, S30T, F50Y, Q55H
B12: AB200-R1a-Fab_Vk16 (antibody)
heavy: B1 heavy with I52Y, Q57D, Q65K
light: B1 light with T26S, S30T, F50A, Q55H, Q90E
B13: AB200-R1a-Fab_Vk3 (antibody)
heavy: B1 heavy with I52Y, Q57D, Q65K
light: B1 light with T26S, L33I, F50Y, L54M, Q55H, T97S
B14: AB200-R1a-Fab_Vk7 (antibody)
heavy: B1 heavy with I52Y, Q57D, Q65K
light: B1 light with T26S, Y32F, F50Y, Q55H, Y91F, L94M
B15: AB200-R1a-Fab_Vk6: AB200_Fab (D99H) heavy chain fragment paired with AB200 kappa variant 6 (round 1) (antibody)
heavy: B1 heavy with I52Y, Q57D, Q65K
light: B1 light
B16: AB200-R1a-Fab_Vk8 (antibody)
heavy: B1 heavy with I52Y, Q57D, Q65K
light: B1 light with T26S, F50Y, Q89H, Y91S
B17: AB200-R1a-Fab_Vk11 (antibody)
heavy: B1 heavy with I52Y, Q57D, Q65K
light: B1 light with S24R, T26S, I29V, F50Y, S52T, Q55H
B18: AB200-R1a-Fab_Vk2 (antibody)
heavy: B1 heavy with I52Y, Q57D, Q65K
light: B1 light with T26S, D28E, I29V, F50Y, Q55H, Q90E
B19: AB200-R1a-Fab_Vk12 (antibody)
heavy: B1 heavy with I52Y, Q57D, Q65K
light: B1 light with T26S, F50Y, T51A, S52T, Q55H, K93R
B20: AB200-R1a-Fab_Vk10 (antibody)
heavy: B1 heavy with I52Y, Q57D, Q65K
light: B1 light with T26S, D28S, F50Y, Q55H, Y91S, L94M
B21: AB200-R1a-Fab_Vk17 (antibody)
heavy: B1 heavy with I52Y, Q57D, Q65K
light: B1 light with F50Y, S52T, Q55H, R92Y
B22: AB200-R1a-Fab_Vk5 (antibody)
heavy: B1 heavy with I52Y, Q57D, Q65K
light: B1 light with T26S, N31S, F50Y, Q55H, K93S, L94T
B23: AB200-R1a-Fab_Vk9 (antibody)
heavy: B1 heavy with I52Y, Q57D, Q65K
light: B1 light with T26S, D28E, F50A, Q55H, T97S
B24: AB200-R1a-Fab_Vk14 (antibody)
heavy: B1 heavy with I52Y, Q57D, Q65K
light: B1 light with T26S, F50Y, T51S, L54M, Q55H, Y91F
B25: AB200-R1a-Fab_Vk15 (antibody)
heavy: B1 heavy with I52Y, Q57D, Q65K
light: B1 light with T26S, Q27H, D28E, F50Y, N53S, Q55H
B26: AB200-R1a-Fab_Vk13 (antibody)
heavy: B1 heavy with I52Y, Q57D, Q65K
light: B1 light with T26S, Q27N, F50Y, T51S, N53D, Q55H

Residue numbers refer to the chain shown, from its start. Names and notes keep the numbering of the source.

A short description of one series: ThermoFluor thermostability (Tm). In kind it is physicochemical. The conditions noted are these: Heavy chain screening Round 1; Fab, paired with light chain AB200_VK6. In general terms: Differential scanning fluorimetry follows unfolding on heating by fluorescence.
B1: the Tm is 81.584 °C.

With B2, the Tm was 79.749 °C.

B3: the Tm came to 82.877 °C.

Take B4: the Tm turned out to be 82.366 °C.

As for B5, the Tm came to 79.077 °C.

B6: the Tm stood at 81.423 °C.

Take B7: the Tm came out at 83.141 °C.

B8: the Tm is 77.727 °C.

On to B9, for which the Tm came out at 79.922 °C.

Still in this series, the particulars now being: Light chain screening Round 1; Fab, paired with heavy chain AB200_D99H.
For B10, the Tm worked out at 84.76 °C.

Take B11: the Tm turned out to be 82.26 °C.

Regarding B12, the Tm came to 80.67 °C.

In the case of B13, the Tm was determined as 80.00 °C.

With B14, the Tm came to 84.48 °C.

For B15, the Tm worked out at 81.31 °C.

Regarding B16, the Tm was determined as 83.90 °C.

Regarding B17, the Tm amounted to 83.58 °C.

Regarding B18, the Tm worked out at 75.43 °C.

As for B19, the Tm turned out to be 83.23 °C.

Consider B20, for which the Tm amounted to 86.11 °C.

Turning to B21, the Tm came to 83.11 °C.

Take B22: the Tm was 81.10 °C.

Turning to B23, the Tm was found to be 84.44 °C.

On to B24, for which the Tm was determined as 82.31 °C.

B25: the Tm was found to be 81.31 °C.

Turning to B26, the Tm came to 79.40 °C.
